Hit rate of the full screen: of about 3,200 compounds, about 110 (3.4%) showed an effect of 50% or more. Some of the results follow.
These molecules were tested on T1, V. cholerae SAD30. Settings: relative growth, OD600, LB; 25 µM; inhibitor.
T1 construct: SAD30
Design: species or system S. aureus MSSA476 (TSB) or V. cholerae SAD30 (LB); 384-well bacterial growth screen at 25 uM, OD600 relative to DMSO control
`O=C(NCc1ccco1)C1CCCN1C(=O)CCl` (stereo not drawn) [5-N05, 1-(2-chloroacetyl)-N-[(furan-2-yl)methyl]pyrrolidine-2-carboxamide] was tested, and the “% of control remaining” value was 104.403%.
With `C=CC(=O)N(C)CC(=O)NC1CCCN(c2ccc(F)cc2F)C1=O` (stereo not drawn) [2-P22, N-({[1-(2,4-difluorophenyl)-2-oxopiperidin-3-yl]carbamoyl}methyl)-N-methylprop-2-enamide] the “% of control remaining” value was 101.004%.
`C=CC(=O)NC(c1ccc(C)cc1)C(C)S(C)(=O)=O` (stereo not drawn) [2-A10, N-[2-methanesulfonyl-1-(4-methylphenyl)propyl]prop-2-enamide] was tested, and the “% of control remaining” value was 94.3646%.
With `CNC(=O)c1cc(C(=O)CCl)cn1C` [10-G10, 4-(2-chloroacetyl)-N,1-dimethyl-1H-pyrrole-2-carboxamide] the “% of control remaining” value was 98.6558%.
With `COCc1ncc2c(n1)CC1CCC2N1C(=O)C(C)Cl` (stereo not drawn) [7-M20, 2-chloro-1-[5-(methoxymethyl)-4,6,12-triazatricyclo[7.2.1.0,2,7]dodeca-2,4,6-trien-12-yl]propan-1-one] the “% of control remaining” value was 81.4142%.
For `CNC(=O)c1ccc(C2CCCCN2C(=O)C(C)Cl)n1C` (stereo not drawn) [7-N15, 5-[1-(2-chloropropanoyl)piperidin-2-yl]-N,1-dimethyl-1H-pyrrole-2-carboxamide], the “% of control remaining” value was 80.0925%.
With `CC(Cl)C(=O)Nc1sc2c(c1C#N)CCCCC2` (stereo not drawn) [5-B20, 2-chloro-N-{3-cyano-4H,5H,6H,7H,8H-cyclohepta[b]thiophen-2-yl}propanamide] the “% of control remaining” value was 96.8372%.
`C=CC(=O)N(CC)CC(=O)N1CC[S+]([O-])C(C)(C)CC1` (stereo not drawn) [3-K21, N-[2-(7,7-dimethyl-1-oxo-1lambda4,4-thiazepan-4-yl)-2-oxoethyl]-N-ethylprop-2-enamide] was tested, and the “% of control remaining” value was 96.3242%.
For `C=CC(=O)N1CCC(Cc2nc(C3CCC3)no2)CC1` [2-A06, 1-{4-[(3-cyclobutyl-1,2,4-oxadiazol-5-yl)methyl]piperidin-1-yl}prop-2-en-1-one], the “% of control remaining” value was 98.0701%.
With `CC(Cl)C(=O)Nc1sccc1C(N)=O` (stereo not drawn) [5-C21, 2-(2-chloropropanamido)thiophene-3-carboxamide] the “% of control remaining” value was 107.429%.
For `C=CC(=O)NCc1cc(C(F)(F)F)on1` [3-F20, N-{[5-(trifluoromethyl)-1,2-oxazol-3-yl]methyl}prop-2-enamide], the “% of control remaining” value was 95.0891%.
`C=CC(=O)N1CCC(C(=O)NCc2cc(C)c[nH]c2=O)CC1` [3-H03, N-[(5-methyl-2-oxo-1,2-dihydropyridin-3-yl)methyl]-1-(prop-2-enoyl)piperidine-4-carboxamide] was tested, and the “% of control remaining” value was 105.852%.

Reference: publication PMC11995724, “Antibiotic target discovery by integrated phenotypic and activity-based profiling of electrophilic fragments” (Cell chemical biology, 2025)
